1 molecule from patent US20250136680A1 (SHANGHAI QILU PHARMACEUTICAL RESEARCH AND DEVELOPMENT CENTRE, published 2025) can be followed below.

Experiment [1] addresses T1, cynomolgus CD3 (purchased from Acro, Cat. No. CDD-C52W4) (cynomolgus, UniProt Q95LI5 22-117).
T1 sequence (looked up): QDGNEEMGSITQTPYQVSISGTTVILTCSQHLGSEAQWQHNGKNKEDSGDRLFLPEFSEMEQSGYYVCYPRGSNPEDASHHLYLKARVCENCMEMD
Kind of experiment: SPR (Biacore 8K), CD3 immobilised directly on CM5, bispecific as analyte, 1:1 Langmuir fit.

The target in experiment [2] is human CD3 (purchased from Acro, Cat. No. CDD-H52W1) (human, UniProt P07766 23-126). Described as above.
Experiment [3] has as its target T2, cynomolgus DLL3 (purchased from Kaixia, Cat. No. DLL-RM103) (cynomolgus, UniProt A0A2K5WSR1 27-490).
T2 construct: Bought recombinant protein
T2 sequence: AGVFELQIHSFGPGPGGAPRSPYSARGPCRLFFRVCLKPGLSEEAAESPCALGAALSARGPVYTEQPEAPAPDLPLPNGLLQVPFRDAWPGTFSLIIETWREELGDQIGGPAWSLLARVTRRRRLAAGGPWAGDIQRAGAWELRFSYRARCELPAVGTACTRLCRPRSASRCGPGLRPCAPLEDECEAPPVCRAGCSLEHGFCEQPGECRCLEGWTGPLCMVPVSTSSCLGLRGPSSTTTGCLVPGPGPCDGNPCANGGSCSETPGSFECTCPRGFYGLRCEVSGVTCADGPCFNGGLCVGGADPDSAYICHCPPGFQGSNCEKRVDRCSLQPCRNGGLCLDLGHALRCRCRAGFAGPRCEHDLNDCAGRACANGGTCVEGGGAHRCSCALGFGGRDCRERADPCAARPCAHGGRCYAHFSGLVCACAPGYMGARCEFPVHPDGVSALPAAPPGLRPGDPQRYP
Kind of experiment: SPR (Biacore 8K), bispecific captured by anti-human Fc on CM5, DLL3 as analyte, 1:1 Langmuir fit.

The target in experiment [4] is T3, human CD3 (hCD3) naturally expressed on Jurkat cells (human, UniProt P07766).
T3 construct: whole, on cells; on the cells it is part of the whole TCR/CD3 complex; also called Jurkat cell line
Kind of experiment: flow cytometry (FACS) on Jurkat cells naturally expressing hCD3.

B1: Bispecific antibody 1 (bispecific antibody)
chain: EVQLVESGGGLVQPGGSLRLSCAASTYTISSGYMGWFRQAPGKEREGVAAIYIGGSTTLYADSVKGRFTISRDNSKNTLYLQMNSLRAEDTAVYYCAAQLRPNAAYHPLDGRKYNYWGQGTLVTVSSGGGGSEVKLVESGGGLVQPGGSLKLSCAASGFTFNTYAMNWVRQAPGKGLEWVARIRSKYNNYATYYADSVKDRFTISRDDAKNTLYLQMNNLRTEDTAVYYCVRHGNFGNSYVSWFAYWGQGTLVTVSSGGGGSGGGGSGGGGSQAVVTQEPSLTVSPGGTVTLTCRSSTGAVTTSNYANWVQQKPGQAPRGLIGGTNKRAPGTPARFSGSLLGGKAALTLSGAQPEDEAEYYCALWYSNLWVFGGGTKLTVL[here human IgG1 Fc with changes without letters]
notes: Two homologous chains, each anti-DLL3 VHH (from hDLL3-3-1-NA) fused to the anti-CD3 scFv of h160C9AA and an IgG1 Fc with L234A/L235A; also called anti-CD3-DLL3 bispecific antibody; DLL3 VHH-(G4S)-CD3VH-(G4S)3-CD3VL-(EPKSS)-IgG1 Fc
For the molecule B1, in experiment [1], the affinity, expressed as Kd, was 0.24 nM and the off-rate constant (koff) was 0.000611 s⁻¹. In experiment [2], the Kd stood at 0.246 nM and the koff was 0.000784 s⁻¹. In experiment [3], this molecule gave a Kd of 4.15 nM, an off-rate (koff) of 0.00132 s⁻¹ and a kon of 319000 M⁻¹ s⁻¹. In addition, in experiment [4], the EC50 was 5.28 nM.
